Hit rate of the full screen: of about 420,000 compounds, about 64,000 (15%) were called active. Inconclusive means that the source gave no clear call. Such entries were picked first, then a sample of the others. The call rests on the fitted dose curve; in most records, active means well fitted inhibition curve with a large enough effect; inconclusive means small, poorly fitted or top-dose-only effect; inactive means flat fitted curve, though single readings scatter. Potencies of inconclusive entries are left out as doubtful fits.
test: qHTS for Inhibitors of human tyrosyl-DNA phosphodiesterase 1 (TDP1): qHTS in cells in absence of CPT; conditions: DT40 Tdp1-/- hTDP1 cells, no CPT, ATP luminescence, 48 h; activity change, negative = growth inhibition: at 46.2 µM (top of the series) unless noted; further: nearly all actives have a fitted effect of over 55% in size
Summary of the method: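 Stably hTDP1-transfected Tdp1-null chicken DT40 cells were treated with library compounds minus camptothecin and grown for at least 48 hr at 37 °C, after which cellular ATP was quantified by luminescence.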
On the % scale 0 is the no-effect control and ±100 the full control effect; potency means the concentration at half of the fitted maximal effect; tags describe the fitted curve by direction and shape.

| SMILES | activity change, negative = growth inhibition | Potency |
| --- | --- | --- |
| C/C(N)=C(/C#N)C(=O)COC(=O)[C@@H](NC(=O)c1ccccc1Cl)C(C)C | inactive: 15.3% |  |
| C=CCc1ccccc1OCCn1nnc2ccccc21 |  | active: 23.1 µM |
| CC(=O)N1CCN(S(=O)(=O)c2cccc(C(=O)NCCC3=CCCCC3)c2)CC1 | inactive: -18.5% |  |
| Cn1nc(C(=O)OCC(=O)Nc2sccc2C(N)=O)c2ccccc2c1=O | inactive: -20.8% |  |
| CCCn1c(CC)nc([N+](=O)[O-])c1Sc1ccc(C)cc1 | inactive: -29.3% |  |
| COc1cccc(NC(=O)C2(C)CCN2C(=O)Cc2ccc(-c3ccccc3)cc2)c1 (configuration not stated) |  | active: 14.6 µM |
| Cc1nn(CC(=O)Nc2cc(S(=O)(=O)N3CCOCC3)ccc2Cl)c(C)c1[N+](=O)[O-] |  | inconclusive [inhibitor, single point] |
| COc1cc2cc(CCOC(=O)c3ccc(F)cc3)oc(=O)c2cc1OC | inactive: -2.32% |  |
| N#Cc1ccccc1NC(=O)C1SC(=Nc2ccccc2)C(C(=O)Nc2ccc(Cl)cc2)=C1N (configuration not stated) |  | active: 20.6 µM |
| C=Cc1ccc(Cn2c(C(=O)O)c(CNCc3ccccc3)c3ccc(C)cc32)cc1 |  | active: 4.61 µM |
| CC(=O)N1CCCc2cc(S(=O)(=O)N3CCCC(C(=O)Nc4cc(Cl)ccc4C)C3)ccc21 (configuration not stated) |  | inconclusive [inhibitor, single point] |
| Cc1onc(-c2ccccc2Cl)c1C(=O)N1CCc2ccccc2C1 |  | inconclusive [inhibitor, single point] |
| CCC(=O)Nc1cccc2cccnc12 | inactive: 2.88% |  |
| CC1CN(C(=O)CSc2nc(-c3ccc(F)cc3)cs2)CC(C)O1 (configuration not stated) |  | inconclusive [inhibitor, single point] |
| COc1ccc(S(=O)(=O)N(CC(=O)N2CCCCCC2)c2ccccc2OC)cc1 | inactive: -25% |  |
| COc1cc(NC(=O)c2ccccc2)c(OC)cc1NC(=O)CN1C(=O)NC2(CCCCC2)C1=O | inconclusive: -30.6% [inhibitor] |  |
| CCc1ccc2c(CN3CCC(C(=O)OC)CC3)cc(=O)oc2c1 | inactive: -28.5% |  |
| O=C(CS(=O)(=O)c1ccc2ccccc2c1)N1CCCCCC1 | inactive: -5.18% |  |
| COc1ccc2nc(C)cc(SCC(=O)OC(C)C)c2c1 |  | inconclusive [inhibitor, single point] |
| COc1ccc(NC(=O)c2ccccc2NC(=O)CSc2ccc(Cl)cc2)cc1 |  | inconclusive [inhibitor, partial curve] |
| CO[C@H]1[C@H](NC(=O)C(C)C)c2ccccc2C12CCN(Cc1cnc(N(C)C)s1)CC2 | inactive: 0.79% |  |
| Cc1cccc2sc(NC(=O)C3CCCN(S(=O)(=O)c4cccc5nonc45)C3)nc12 (configuration not stated) |  | inconclusive [inhibitor, single point] |
| Cc1ccc(CSc2nc3ccsc3c(=O)n2Cc2ccccn2)cc1 |  | active: 16.4 µM |
| COc1ccc(Cl)cc1NC(=O)[C@@]1(CC(=O)O)CC(/C=C/c2ccccc2)=NO1 | inactive: 14.1% |  |

| SMILES | activity change, negative = growth inhibition | Potency |
| --- | --- | --- |
| COc1ccccc1-c1nc(S(=O)(=O)c2ccccc2)c(N2CCCCC2)o1 |  | inconclusive [inhibitor, partial curve] |
| Cc1cc(C)nc(-n2ncc3c2CC(c2ccc(C(C)C)cc2)CC3=O)n1 (configuration not stated) |  | inconclusive [inhibitor, single point] |
| CCCCCOC(=O)Cn1c(SCC(=O)Nc2ccccc2)nc2c1c(=O)[nH]c(=O)n2C |  | inconclusive [inhibitor, partial curve] |
| COCCNC(=O)Cn1cc(C(=O)c2ccco2)c2ccccc21 | inactive: 0.985% |  |
| O=C(O)c1cc(S(=O)(=O)Nc2ccc3cn[nH]c3c2)ccc1Cl | inactive: 1.58% |  |
| C/C(=N\NC(=O)c1cc(C)nc2ccccc12)c1cccs1 | inactive: -28.1% |  |
| Cc1c(C(=O)N2CCOCC2)c(S(=O)(=O)N2CCN(c3ccc(Cl)cc3)CC2)c(C)n1C | inactive: 21.8% |  |
| Cc1[nH]n(-c2ccccc2)c(=O)c1N=Nc1cccc(Cl)c1 |  | inconclusive [inhibitor, single point] |
| C[C@H](NC(=O)c1nc[nH]c1C(=O)N[C@@H](CCCCNC(=O)OC(C)(C)C)C(=O)OC(C)(C)C)C(=O)OCc1ccccc1 |  | inconclusive [inhibitor, single point] |
| Cc1ccc(-n2ncc3c2CCCC3NC(=O)c2csnn2)cc1C (configuration not stated) | inconclusive: -30.7% [inhibitor] |  |
| CCCn1cc(S(=O)(=O)c2ccc(OC)cc2)c(=O)c2cc(OC)ccc21 | inactive: 17.1% |  |
| O=C(CSc1nc2ccc(Cl)cc2[nH]1)NCc1ccco1 |  | inconclusive [inhibitor, single point] |
| CCOc1cccc(N(C(=O)CCC(=O)Nc2cc(C)on2)C(C(=O)NC(C)(C)C)c2ccc(OC)cc2)c1 (configuration not stated) |  | inconclusive [inhibitor, single point] |
| C[C@@H]1CN([C@H](C)CO)C(=O)CCCn2nncc2CO[C@H]1CN(C)C(=O)c1cc(-c2ccccc2)on1 | inactive: -16.2% |  |
| CN1C(=S)SC(N2OC3C(=O)N(c4ccccc4)C(=O)C3C2c2ccc(Cl)cc2)C1(C)C (configuration not stated) | inactive: 4.62% |  |
| Cn1c(N)c(C(=O)COC(=O)C23CC4CC(CC(C4)C2)C3)c(=O)n(C)c1=O | inconclusive: -35.3% [inhibitor] |  |
| S=C(Nc1ccccc1)N1CCN(C/C=C/c2ccccc2)CC1 |  | inconclusive [inhibitor, partial curve] |
| Cc1cc2nc(-c3ccc(Cl)cc3)c(CC(C)(C)C)n2c(C)c1Br |  | inconclusive [inhibitor, single point] |
| COc1ccc(/C=C2/C(=O)OCc3cc(OC)c(OC)cc32)c(OC)c1 |  | active: 29.1 µM |
| C/C(=N/NC(=O)CNC(=O)C1COc2ccccc2O1)c1cccc(O)c1 (configuration not stated) |  | inconclusive [inhibitor, partial curve] |
| COc1cccc(CSc2nc3sc(C)c(C)c3c(=O)n2Cc2ccco2)c1 |  | inconclusive [inhibitor, single point] |
| CN(CCOc1cccc(C(F)(F)F)c1)Cc1ccccc1 |  | inconclusive [inhibitor, single point] |
| N#Cc1cc([N+](=O)[O-])ccc1NC(=O)COC(=O)C1CC2CCCC(C1)C2=O (configuration not stated) |  | inconclusive [inhibitor, single point] |
